Results: PubChem BioAssay AID485360 (National Center for Advancing Translational Sciences (NCATS), 2010)
Values joined by “and” are separate entries in the source; they are usually repeats but may differ in a detail not shown here. Equal values may be shown once. The campaign covered roughly 230,000 compounds. About 1,500 (0.65%) were called active. This list was built around the results that the source calls inconclusive (neither active nor inactive); the mix of calls is not that of the screen. Calls come from the whole dose curve; as a rule, active = well fitted inhibition curve with a large enough effect; inconclusive = small, poorly fitted or top-dose-only effect; inactive = no such curve, though single readings can be large or run the other way. Potencies beside an inconclusive call are fits to weak or partial responses and may not hold up.
% is set by controls: 0 for no effect and ±100 for the full control effect; potency is the fitted concentration of half-maximal effect; tags give direction and shape of the fitted curve.
Note: nearly all actives have a fitted effect of over 60% in size.

What follows are compounds tested against Lethal(3)malignant brain tumor-like protein 1 (Homo sapiens) (UniProt Q9Y468) (assay: qHTS Assay for the Inhibitors of L3MBTL1). Conditions: AlphaScreen L3MBTL1–H3K9me1 peptide binding; activity, negative = inhibition: at 57.1 µM (top of the series).
Chain of UniProt Q9Y468 (Q9Y468 whole entry, looked up): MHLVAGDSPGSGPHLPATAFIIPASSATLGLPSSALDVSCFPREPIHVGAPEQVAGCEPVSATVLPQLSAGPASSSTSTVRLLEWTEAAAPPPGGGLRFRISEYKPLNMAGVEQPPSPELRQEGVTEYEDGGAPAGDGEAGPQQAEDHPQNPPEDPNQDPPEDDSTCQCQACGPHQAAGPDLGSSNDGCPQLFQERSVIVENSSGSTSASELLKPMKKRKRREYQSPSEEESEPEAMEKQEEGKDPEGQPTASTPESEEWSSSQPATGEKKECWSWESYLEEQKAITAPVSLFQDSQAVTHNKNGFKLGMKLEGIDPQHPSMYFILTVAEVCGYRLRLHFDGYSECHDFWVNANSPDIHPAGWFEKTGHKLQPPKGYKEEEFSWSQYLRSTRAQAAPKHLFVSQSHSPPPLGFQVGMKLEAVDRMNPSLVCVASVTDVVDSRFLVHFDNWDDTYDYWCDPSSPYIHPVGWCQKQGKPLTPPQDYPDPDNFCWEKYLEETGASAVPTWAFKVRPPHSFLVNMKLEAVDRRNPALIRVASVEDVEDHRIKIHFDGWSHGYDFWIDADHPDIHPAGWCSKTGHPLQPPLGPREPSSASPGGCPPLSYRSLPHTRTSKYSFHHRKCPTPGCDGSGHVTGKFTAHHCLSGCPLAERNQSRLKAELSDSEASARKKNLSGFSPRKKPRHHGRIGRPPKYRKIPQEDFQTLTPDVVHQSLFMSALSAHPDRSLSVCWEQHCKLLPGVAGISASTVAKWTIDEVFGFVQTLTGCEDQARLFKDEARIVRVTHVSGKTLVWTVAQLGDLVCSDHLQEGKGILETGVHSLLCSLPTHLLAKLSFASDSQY
In short: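 First, the protein-peptide complex forms for 30 min at room temperature (L3MBTL1 50 nM, biotinylated H3K9me1 peptide 75 nM). Next, compounds are pin-transferred and incubated 30 min. Finally, AlphaScreen beads are added and read after 30 min.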
For COc1ccc(Nc2nc(N)nc(CSC(=S)N3CCCCC3C)n2)cc1 (stereo unspecified), the Potency was inconclusive: 15.8 µM [inhibitor, partial curve].
COCCCNS(=O)(=O)c1ccc(Cl)c(C(F)(F)F)c1 was tested, and the Potency was inconclusive: 0.562 µM [inhibitor, single point].
COc1ccnc(CSC(N)=Nc2cccc(C(F)(F)F)c2)c1 was tested, and the Potency was inconclusive: 28.2 µM [inhibitor, single point].
O=C(c1ccco1)N1CCN(Cc2nnnn2CCc2ccccc2)CC1 was tested, and the Potency was inconclusive: 39.8 µM [inhibitor, single point].
With CCOC(=O)c1c(C)[nH]c(C(=O)CN2C(=O)NC(C)(C)C2=O)c1C the Potency was inconclusive: 6.31 µM [inhibitor, single point].
In the case of COC(=O)CNC(=O)c1cccc(Cl)c1, the Potency is reported as inconclusive: 0.1 µM [inhibitor, full curve, poor fit].
For Cc1c(N(C)C(=O)c2ccco2)c(=O)n(-c2ccccc2)n1C, the Potency was “inactive”.
In the case of Cc1[nH]nc2c1C(c1ccc(Cl)cc1)C(C#N)=C(N)O2 (stereo unspecified), the Potency is reported as inconclusive: 3.98 µM [inhibitor, single point].
With CN(C)c1ccc(N=C/C=C2\N(C)c3ccccc3C2(C)C)cc1 the Potency was inconclusive: 35.5 µM [inhibitor, single point].
C=CCNC(=S)Nc1c(C(=O)OC)[nH]c2cc(OC)ccc12 was tested, and the Potency was “inactive”.
With COc1ccc(N2CCN(Cc3nc4scc(-c5ccccc5)c4c(=O)[nH]3)CC2)cc1 the Potency was inconclusive: 5.01 µM [inhibitor, single point].
For O=Cc1nc(-c2ccc(Cl)cc2)n2ccccc12, the Potency was inconclusive: 0.794 µM [inhibitor, full curve, poor fit].
In the case of C/C(=N/NC(=S)Nc1cccc(C)c1)c1cccc([N+](=O)[O-])c1, the Potency is reported as inconclusive: 7.94 µM [inhibitor, partial curve].
For COc1ccc(-c2ncc3ccccn23)cc1, the Potency was inconclusive: 6.31 µM [inhibitor, single point].
CCCCC(=O)NC1(C(F)(F)F)NC(=O)N(Cc2ccccc2)C1=O (stereo unspecified) was tested, and the Potency was inconclusive: 0.708 µM [inhibitor, full curve, poor fit].
For COc1ccc(OC)c(Cc2nnc(CCC(=O)NC(C3CC3)C3CC3)o2)c1, the Potency was “inactive”.
Oc1ccc(F)c2cccnc12 was tested, and the Potency was inconclusive: 31.6 µM [inhibitor, single point].
CCn1nc(-c2ccccc2)c2nc3ccccc3nc21 was tested, and the Potency was “inactive”.
For Cc1ccc(NCCC(=O)c2cccc([N+](=O)[O-])c2)cc1, the Potency was inconclusive: 14.1 µM [inhibitor, partial curve].
For COc1ccc(-n2c(Cc3cccn3C)nnc2SCC(=O)Nc2ccccc2F)cc1, the Potency was inconclusive: 35.5 µM [inhibitor, single point].
In the case of O=C1c2ccccc2C(Nc2ccc3c(c2)OCCO3)N1Cc1ccc2c(c1)OCO2 (stereo unspecified), the Potency is reported as inconclusive: 20 µM [inhibitor, partial curve].
With COc1ccc(-c2nc3ccccc3s2)cc1O the activity, negative = inhibition was inactive: 15.2% [at 11.4 µM].
With COc1ccc(NC2=NC3(CCCCC3)N=C(N)N2)cc1 the Potency was “inactive”.
With CCOC(=O)N1CCN(C(=O)CSc2nc3c(cnn3-c3ccc(Cl)cc3)c(=O)[nH]2)CC1 the Potency was inconclusive: 0.794 µM [inhibitor, single point].
With O=C(COC(=O)c1ccc([N+](=O)[O-])s1)NCCc1ccccc1 the Potency was inconclusive: 10 µM [inhibitor, partial curve].
In the case of CC(=O)OCC1=C(C(=O)O)N2C(=O)[C@@H](NC(=O)CSc3ccncc3)[C@H]2SC1, the Potency is reported as active: 15.8 µM.
In the case of O=C(Oc1ccc2c(c1)OCO2)C12CC3CC(CC(C3)C1)C2, the Potency is reported as “inactive”.
Cn1c(C(C#N)C2=C(Cl)C(=O)N(c3ccccc3)C2=O)nc2ccccc21 (stereo unspecified) was tested, and the Potency was inconclusive: 28.2 µM [inhibitor, single point].
CC1CC1C(=O)OCC(=O)Nc1ccc(N=Nc2ccccc2)cc1 (stereo unspecified) was tested, and the Potency was “inactive”.
Cc1cc2nc(N3CCN(C(=O)c4cccs4)CC3)sc2cc1C was tested, and the Potency was inconclusive: 6.31 µM [inhibitor, single point].
For CCn1c(/C=C/c2ccc(O)c(O)c2)nc2ccccc2c1=O, the Potency was active: 20 µM.
With CCCN1C(=O)/C(=C\C=C2\N(CC)c3ccccc3C2(C)C)SC1=S the Potency was inconclusive: 0.447 µM [inhibitor, full curve, poor fit].
In the case of COc1ccc(NC(=O)CC2SC(N3CCOCC3)=NC2=O)c(OC)c1 (stereo unspecified), the Potency is reported as inconclusive: 28.2 µM [inhibitor, single point].
For CCc1ccc(N2CCN(S(=O)(=O)CC34CCC(CC3=O)C4(C)C)CC2)cc1 (stereo unspecified), the Potency was inconclusive: 6.31 µM [inhibitor, single point].
CN(Cc1cccs1)CC(O)COCc1ccco1 (stereo unspecified) was tested, and the Potency was “inactive”.
In the case of CC(=O)Nc1cccc(-c2csc(Nc3ncccn3)n2)c1, the Potency is reported as inconclusive: 0.316 µM [inhibitor, full curve, poor fit].
O=C(CSc1nc(NS(=O)(=O)c2ccccc2)cc(=O)[nH]1)Nc1ccc(Cl)cc1 was tested, and the Potency was inconclusive: 31.6 µM [inhibitor, single point].
For COc1cccc(CC2(CO)CCCN(Cc3cn[nH]c3-c3cc(C)ccc3C)C2)c1 (stereo unspecified), the Potency was “inactive”.
For COc1ccc2oc(C(=O)Nc3nc(-c4ccccn4)cs3)c(C)c2c1, the Potency was active: 25.1 µM.
In the case of CC(=O)NC(c1cccs1)c1cc(F)c2cccnc2c1O (stereo unspecified), the Potency is reported as inconclusive: 20 µM [inhibitor, partial curve] and inconclusive: 28.2 µM [inhibitor, single point].
C(=C\c1ccco1)/C=N/n1cnnc1 was tested, and the Potency was inconclusive: 39.8 µM [inhibitor, single point].
CC(=O)Nc1ccc(S(=O)(=O)Nc2nc3ccccc3nc2N2CCOCC2)cc1 was tested, and the Potency was “inactive”.
O=[N+]([O-])c1ccc(/C=N/N2CCN(Cc3ccccc3)CC2)cc1 was tested, and the activity, negative = inhibition was inconclusive: -44.4% [inhibitor].
With CCCCCCC(=O)N/N=C(\C)Cc1ccccc1 the Potency was “inactive”.
For Cc1cccc(OCCC(=O)OCC(=O)Nc2c(C)nn(-c3ccccc3)c2C)c1, the Potency was “inactive”.
In the case of Cc1ccc(NC(=O)CCc2nc3sc4c(c3c(=O)[nH]2)CCCC4)nc1, the Potency is reported as inconclusive: 35.5 µM [inhibitor, single point].
